The record followed here is the supplement of paper PMC9446081.

In all, about 39,000 compounds went through this assay and about 220 (0.56%) showed activity. The list shows a part of the results.
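Note: static incubation at 37 °C against the wild-type strain, values averaged over two biological replicates.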

For this test, the system named is Escherichia coli K-12 BW25113. In words: relative growth (OD600 normalised to plate interquartile mean) (fraction); higher = less growth inhibition, active = 0.2 or less. The settings on record: 50 µM; LB; incubation time: overnight (16-24 h).
`COC(=O)C(CC#Cc1ccc2c(c1)[C@]1(C(=O)N2)[C@H](c2ccccc2OCCO)N2[C@H](c3ccccc3)[C@H](c3ccccc3)OC(=O)[C@H]2[C@@H]1C(=O)N1CCc2cc(OC)c(OC)cc2C1)C(=O)OC`: the relative growth is inactive: 1.07.

For `Cc1ccc(S(=O)(=O)N(C)C[C@@H]2Oc3ccc(NC(=O)CCN4CCOCC4)cc3C(=O)N([C@@H](C)CO)C[C@H]2C)cc1`, the relative growth was inactive: 0.999.

With `NCCCc1nc2c(s1)CCCC2`, the relative growth is inactive: 0.998.

Turning to `CC(C)NC(=O)Nc1ccc2c(c1)C(=O)N([C@@H](C)CO)C[C@H](C)[C@@H](CN(C)Cc1ccc(-c3ccccc3)cc1)O2`, the relative growth was inactive: 0.981.

For `O=C(C[C@H]1NC(=O)NC1=O)Nc1ccccc1`, the relative growth was inactive: 1.01.

Consider `CC(C)CC#Cc1ccc2c(c1)O[C@H](CN(C)S(=O)(=O)c1cccc(F)c1)[C@@H](C)CN([C@H](C)CO)S2(=O)=O`, for which the relative growth is inactive: 1.02.

Consider `CC(C)NC(=O)N(C)C[C@H]1OCCCC[C@@H](C)Oc2ccc(NC(=O)Nc3ccc(C(F)(F)F)cc3)cc2C(=O)N([C@H](C)CO)C[C@@H]1C`, for which the relative growth is inactive: 0.986.

As for `CN(C)CC#Cc1ccc([C@H]2[C@H]3CN(C(=O)c4cccnc4)CC(=O)N3[C@H]2CO)cc1`, the relative growth was inactive: 0.989.

Regarding `COc1ccccc1CN1C(=O)c2ccccc2[C@@]2(Cc3ccccc3N(CC(C)C)C2=O)[C@@H]1c1ccc(CO)cc1`, the relative growth was inactive: 1.01.

For `C[C@@H]1CN([C@@H](C)CO)C(=O)c2cc(C3=CCCCC3)cnc2O[C@@H]1CN(C)S(=O)(=O)c1cn(C)cn1`, the relative growth was inactive: 0.986.

Consider `C[C@H]1CN([C@@H](C)CO)S(=O)(=O)c2ccc(C3=CCCC3)cc2O[C@@H]1CN(C)C(=O)c1cnccn1`, for which the relative growth was inactive: 1.02.

As for `COc1ccc(S(=O)(=O)Nc2ccc3c(c2)C(=O)N([C@@H](C)CO)C[C@H](C)[C@H](CN(C)S(=O)(=O)c2cccs2)O3)cc1`, the relative growth is inactive: 0.999.

`COc1ccccc1NC(=O)N(C)C[C@H]1Oc2ncc(Br)cc2C(=O)N([C@H](C)CO)C[C@@H]1C`: the relative growth was inactive: 0.988.

For the molecule `CC(C)NC(=O)N(C)C[C@H]1Oc2ccc(NC(=O)Nc3ccc4c(c3)OCO4)cc2CC(=O)N([C@H](C)CO)C[C@H]1C`, the relative growth is inactive: 0.974.

Consider `C[C@@H]1CN([C@H](C)CO)C(=O)Cc2cc(NS(=O)(=O)c3cn(C)cn3)ccc2O[C@H]1CN(C)Cc1ccncc1`, for which the relative growth is inactive: 0.968.

On to `COc1ccc(S(=O)(=O)N(C)C[C@@H]2Oc3c(NC(=O)c4ccncc4)cccc3C(=O)N([C@H](C)CO)C[C@H]2C)cc1`, for which the relative growth was inactive: 0.986.

As for `COc1ccc(C[C@H](N)C(=O)N[C@H]2[C@@H](O)[C@@H](n3cnc4c(N(C)C)ncnc43)O[C@@H]2CO)cc1`, the relative growth was inactive: 0.748.
